Source: PubChem BioAssay AID1159614 (National Center for Advancing Translational Sciences (NCATS), 2016)
In all, about 45,000 compounds went through this assay and about 65 (0.1%) were called active. Calls come from the whole dose curve; as a rule, active = well fitted activation curve with a large enough effect; inconclusive = small, poorly fitted or top-dose-only effect; inactive = no such curve, though single readings can be large or run the other way. The list shows a part of the results.

target: Galactocerebrosidase (Homo sapiens) (UniProt P54803); experiment: A Novel Cell-Based Assay to Identify Small Molecules for B -Galactocerebrosidase; conditions: 145M-Twi-hGALC-G270D cells (Twitcher mouse brain line with human GALC G270D), HMU-beta-Gal fluorescence, 48 h; series mostly up to 57.5 µM; activation: at the top concentration; note: 0% is about no effect; nearly all actives have a fitted effect of over 65% in size
UniProt P54803, sequence (P54803 whole entry, looked up): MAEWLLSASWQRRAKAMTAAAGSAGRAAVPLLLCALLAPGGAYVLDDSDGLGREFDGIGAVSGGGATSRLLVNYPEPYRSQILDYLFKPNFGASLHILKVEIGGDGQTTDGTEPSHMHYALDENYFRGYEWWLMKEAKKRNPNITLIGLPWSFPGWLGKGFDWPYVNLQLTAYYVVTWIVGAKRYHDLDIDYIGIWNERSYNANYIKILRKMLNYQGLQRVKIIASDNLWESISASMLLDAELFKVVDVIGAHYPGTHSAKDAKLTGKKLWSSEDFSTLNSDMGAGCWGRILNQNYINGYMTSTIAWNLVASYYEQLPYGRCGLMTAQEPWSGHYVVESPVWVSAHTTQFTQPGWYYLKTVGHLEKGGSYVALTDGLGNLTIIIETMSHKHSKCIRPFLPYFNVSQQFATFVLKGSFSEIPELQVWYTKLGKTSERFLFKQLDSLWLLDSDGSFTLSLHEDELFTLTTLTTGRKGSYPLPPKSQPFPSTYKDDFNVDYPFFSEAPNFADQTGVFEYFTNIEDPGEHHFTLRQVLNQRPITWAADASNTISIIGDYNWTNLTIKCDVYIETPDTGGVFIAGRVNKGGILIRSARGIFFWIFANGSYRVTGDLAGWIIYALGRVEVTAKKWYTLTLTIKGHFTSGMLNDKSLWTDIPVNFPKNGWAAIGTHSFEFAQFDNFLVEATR
Procedure, shortened: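 Fluorogenic HMU-b-Gal hydrolysis (0.1 mM final, pH 5.2 citrate-phosphate with 1 mg/mL sodium taurocholate; carbonate stop buffer) measures mutant GALC activity after compound treatment of live 145M-Twi Twitcher brain cells stably carrying human GALC-G270D, with wild-type GALC line alongside; activation sought.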

activation, inactive:
O=C(COc1ccccc1)Nc1sc2c(c1C(=O)Nc1ccccc1)CCCCC2 -15%
CCOC(=O)C1CCCN(C(=O)Cn2ncc3c4ccccc4n(Cc4ccc(F)cc4)c3c2=O)C1 (centres undefined) -5.89%
CCc1nnc(NC(=O)CSc2nc3c([nH]c4ccccc43)c(=O)n2-c2ccc(C)cc2)s1 -0.114%
CCc1nc2ccc(C(=O)N3CCN(c4cccc(OC)c4)CC3)cc2nc1CC -13.9%
Cc1ccc2[nH]c(CSc3nnc(NC(=O)COc4ccccc4Cl)s3)cc(=O)c2c1 2.98%
CN(Cc1ccccc1)C(=O)Cn1c(=O)c2cccn2c2ccc(F)cc21 -2.57%
CCOC(=O)CNC(=O)CC(c1cc(OC)c(OC)c(OC)c1)N1Cc2ccccc2C1=O (centres undefined) -7.66%
CC(=O)SCC(CC(=O)c1ccc(C)cc1)C(=O)O (centres undefined) -20.1%
CCN(CC)c1ccc(C(=O)Nc2ccc3nc(N(CC)CC)cc(C)c3c2)cc1 -1.02%
O=S(=O)(NCC(c1ccco1)N1CCOCC1)c1ccc(Cl)cc1 (centres undefined) 14.8%
Cc1ccccc1NC(=O)C1CCN(S(=O)(=O)c2ccccc2)CC1 -5.53%
CCc1ccc(NC(=O)C2CCCN(S(=O)(=O)c3cccc4cccnc34)C2)cc1 (centres undefined) -21.5%
Cc1ccc(CNC(=O)c2sc3ncnc(N(C)C4CCCCC4)c3c2C)cc1 8.21%
CC(=O)c1cccc(-n2c(=O)c3c4c(sc3n(CC(=O)c3ccc(Cl)cc3)c2=O)CN(C(C)=O)CC4)c1 -6.27%
CC1CCCCN1C(=O)CSc1n[nH]c(-c2ccccc2)n1 (centres undefined) -13.7%
CCOc1cc(C(=O)Nc2ccc(-c3nc4cc(Cl)ccc4o3)cc2)cc(OCC)c1OCC -12.9%
Cc1cccc(C(=O)N(Cc2ccco2)Cc2ccccc2F)c1 7.8%
Cc1ccc(CCNC(=O)C2CC(=O)N(CCc3ccccc3)C2)cc1 (centres undefined) -12.5%
COc1ccc(CCNC(=O)c2ccc3c(c2)c(C)c(C)n3Cc2ccccc2)c(OC)c1OC -12.5%
CCc1nn(CCCC(=O)N2CCN(c3ccc(OC)cc3)CC2)c(=O)c2cc3occc3n12 -9.24%
O=C(Nc1cccc(Cl)c1)c1cc(-c2ccccc2)on1 24.4%
O=c1[nH]c(C2CCCN(S(=O)(=O)c3ccccc3Cl)C2)nc2c1nnn2Cc1ccc(OC(F)(F)F)cc1 (centres undefined) -13.2%
Cn1cc(C(=O)NCCc2ccc(Cl)cc2)c(=O)c2cc(S(=O)(=O)N3CCOCC3)ccc21 -12.1%
COc1ccc(CNC(=O)CCCc2nnc3n(CCC(C)C)c(=O)c4sccc4n23)cc1 -14.2%
Cc1cc(CC(=O)O)c(C)n1-c1ccc(Cl)cc1 -17.6%
O=C(Nc1nnc(S(=O)(=O)N2CCCCCC2)s1)c1cccc(Br)c1 -9.14%
COc1ccc(NC(=O)C2CCC(CNS(=O)(=O)c3ccc4c(c3)C(C)(C)C(=O)N4C)CC2)cc1 (centres undefined) -10%
Cc1cccc(N2CCN(C(=O)Cn3ncc4c3-c3ccccc3OC4)CC2)c1C -36.7%
CCOc1ccc(Nc2ncnc3c2nc2n3CCCCC2)cc1 -11.1%
COc1ccc(CNCCCSc2nnnn2C)c(OC)c1 -5.91%
CC(=O)c1ccc(NC(=O)c2nc(-c3ccccc3)n(-c3ccccc3Cl)n2)cc1 -18.9%
CCc1nnc(SCc2ccc(F)cc2Cl)c2cc3sc(C)cc3n12 8.44%
N#Cc1ccccc1Cn1c(SCC(=O)Nc2ccc(F)cc2)nc2ccccc21 -11.5%
CCOc1ccc(C(=O)Nc2onc3c2CCCC3)cc1 -5.85%
O=C(COc1ccccc1)Nc1ccc2nc(SCC(=O)N3CCc4ccccc43)sc2c1 1.37%
Cn1cnc(S(=O)(=O)N2CCC(C(=O)Nc3ccc(C#N)cc3)CC2)c1 -20%
Clc1cccc(N2CCN(c3c4c(nc5nncn35)CCC4)CC2)c1 -29.5%
Cc1nn(CC(=O)NCC(C)c2ccccc2)c(=O)c2cc3ccccc3n12 (centres undefined) -14.3%
CCOc1ccc(CNC(=O)C2CCN(S(=O)(=O)c3ccc4c(ccn4C)c3)CC2)cc1 -0.351%
COc1cccc(CNC(=O)CCn2c(=O)c3cccn3c3cccnc32)c1OC -3.1%
CCOC(=O)c1ccccc1NC(=O)c1ccc2c(Cl)c3c(nc2c1)CCC3 -3.14%
Cc1ccccc1NC(=O)CSc1cn(CC(=O)N2CCCC2)c2ccccc12 -16.8%
Cc1c(C(=O)Nc2ccc(-c3nc4cc(Cl)ccc4o3)cc2)oc2ccccc12 -4.47%
COc1ccc(N(C)C(=O)c2nc(-c3cccc(F)c3)n3c2CCCCC3)c(OC)c1 -12.6%
Cc1c(Cl)cccc1NC(=O)c1cc2sccc2n1Cc1ccc(F)cc1 -12.1%
CCCCn1c(=O)c2oc3ccccc3c2n(Cc2cccc(C)c2)c1=O -13.6%
Cc1ccc(-c2noc(-c3ccc(N4CCCCC4C)c([N+](=O)[O-])c3)n2)cc1 (centres undefined) -3%
Cc1cc(-c2ccc(S(=O)(=O)NCc3ccccc3Cl)s2)on1 -30.7%
CCS(=O)(=O)N1CCC2(CC1)OC(=O)C(C)=C2C(=O)NCc1ccccc1C 1.15%
CCOc1ccc(NC(=O)CN2CCN(C3CCCCC3)C(=O)C2=O)cc1 5.27%
Cc1ccc(S(=O)(=O)N2CCc3cc(C(=O)NCCc4ccccc4)ccc32)cc1 -14%
Cc1c(-c2cccc(NC(=O)Nc3ccccc3)c2)nc2ncccn12 -5.71%
Cc1ccc(-c2cc(-c3coc4ccccc4c3=O)c3c(n2)-c2ccccc2OC3)cc1 -14.7%
COc1cccc(Cn2c(=O)cc(C)c3c(C)nn(-c4ccc(C)cc4)c32)c1 -4.39%
Cc1noc(NS(=O)(=O)c2ccc(NC(=O)c3ccc(Br)cc3)cc2)c1C -6.72%
COC(=O)c1nnn(CC(=O)NC(=O)Nc2ccccc2F)c1C(=O)OC -12.3%
Cc1c(Cl)cccc1NC(=O)c1ccc2nc(C(C)C)oc2c1 -1.83%
CCN1CCC(N(Cc2ccc(F)cc2)C(=O)Nc2cccc(C(F)(F)F)c2)CC1 -16.5%
CCc1ccccc1Nc1nn2c(=O)c3ccc(C(=O)Nc4ccc(OC)cc4)cc3nc2s1 -21%
Cc1cccc(NC(=O)NCCOCCn2c(=O)oc3ccccc32)c1C -2.2%
CC(=O)Nc1cc(-c2ccccc2)nn1Cc1cccc(Cl)c1 -15.7%
O=C(CSc1nc2ccccc2nc1Cc1ccccc1)N1CCN(c2ccccc2)CC1 -10.1%
CC(C)Oc1ccc(C(=O)Nc2ccc(-c3nc4ccccc4s3)cc2)cc1 -18.6%
COc1ccc(CCC(=O)NCc2nc3cccnc3n2Cc2ccccc2)cc1 6.79%
